# Results taken from PubChem BioAssay AID1030 (National Center for Advancing Translational Sciences (NCATS), 2008).
# Screen size: about 220,000 compounds; about 16,000 (7.3%) were called active. This list was built around the results that the source calls inconclusive (neither active nor inactive); the mix of calls is not that of the screen. Calls come from the whole dose curve; as a rule, active = well fitted inhibition curve with a large enough effect (not every such curve was filed as active); inconclusive = small, poorly fitted or top-dose-only effect, or another doubt; inactive = no such curve, though single readings can be large or run the other way. Potencies beside an inconclusive call are fits to weak or partial responses and may not hold up.
# Target: Aldehyde dehydrogenase 1A1 (Homo sapiens) (UniProt P00352)
# Test: qHTS Assay for Inhibitors of Aldehyde Dehydrogenase 1 (ALDH1A1);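 for activity, negative = inhibition: plate controls were no enzyme wells and a reference inhibitor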
# Conditions: Purified ALDH1A1, NADH fluorescence, propionaldehyde substrate; series mostly up to 75.3 µM
# Potency is the fitted concentration of half-maximal effect; tags give direction and shape of the fitted curve.
# Sequence of UniProt P00352 (P00352 whole entry, looked up): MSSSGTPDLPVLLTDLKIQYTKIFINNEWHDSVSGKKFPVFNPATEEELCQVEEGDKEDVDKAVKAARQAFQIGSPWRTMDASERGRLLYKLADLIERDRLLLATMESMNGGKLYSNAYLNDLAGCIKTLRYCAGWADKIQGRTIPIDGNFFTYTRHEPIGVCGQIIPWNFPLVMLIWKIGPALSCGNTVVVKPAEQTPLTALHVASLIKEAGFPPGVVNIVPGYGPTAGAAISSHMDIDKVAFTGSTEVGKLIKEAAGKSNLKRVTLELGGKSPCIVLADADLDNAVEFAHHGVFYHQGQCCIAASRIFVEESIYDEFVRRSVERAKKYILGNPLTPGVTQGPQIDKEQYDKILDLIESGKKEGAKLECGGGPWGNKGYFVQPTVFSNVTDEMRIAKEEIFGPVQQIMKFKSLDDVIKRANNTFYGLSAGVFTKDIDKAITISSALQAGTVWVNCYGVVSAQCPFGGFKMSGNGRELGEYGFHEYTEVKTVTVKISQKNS
Compound,Potency,"activity, negative = inhibition"
COCCNc1nc(-c2ccc(N(C)C)cc2)nc2ccccc12,"inconclusive: 39.8 µM [inhibitor, single point]",–
CC1Cc2nc(SCC(=O)Nc3ccc(F)cc3F)n(C)c(=O)c2S1 (stereo not given),"inconclusive: 17.8 µM [inhibitor, partial curve]",–
O=C(C1CCN(c2ccc(N3CCOCC3)nn2)CC1)N1CCN(c2ccc(F)cc2)CC1,"inconclusive: 39.8 µM [inhibitor, single point]",–
COC(=O)NC(NC(=S)Nc1ccc([N+](=O)[O-])cc1)C(Cl)(Cl)Cl (stereo not given),active: 20 µM,–
O=C1CC(N2CCN(c3ccccc3)CC2)C(=O)N1Cc1ccc(Cl)cc1 (stereo not given),"inconclusive: 44.7 µM [inhibitor, single point]",–
COc1ccc(C(=O)Nc2cc(-c3nn4c(C)nnc4s3)ccc2C)cc1,inactive,–
CC(C)Oc1ccc(NC(=O)c2ccncc2)cc1,"inconclusive: 35.5 µM [inhibitor, single point]",–
COc1cnc(-c2ccccc2)nc1Oc1cccc(C)c1,inactive,–
CCCN(CC(=O)Nc1ccc(F)c(F)c1F)CC(=O)Nc1c(Cl)cccc1Cl,inactive,–
Cc1ccc(C(=O)NC(=S)Nc2ccccc2C(F)(F)F)cc1,active: 12.6 µM,–
CCC1N=C(SC)NC(C)=C1C(=O)c1ccccc1 (stereo not given),"inconclusive: 39.8 µM [inhibitor, single point]",–
Cc1c(C(=O)OC2CCCC2C)[nH]c2c1C(=O)CCC2 (stereo not given),active: 8.91 µM,–
CCOC(=O)N1CCC(N2Cc3cccc(C(=O)NCc4ccc(OC)cc4)c3C2=O)CC1,active: 20 µM,–
C=CCn1c(SCc2c(C)noc2C)nc2ccccc2c1=O,inactive,–
S=C(NC1CCCCC1)N1CCN(Cc2ccccc2Cl)CC1,"inconclusive: 39.8 µM [inhibitor, single point]",–
O=C1CC(N2CCOCC2)C(=O)N1c1cccc(Cl)c1 (stereo not given),"inconclusive: 28.2 µM [inhibitor, single point]",–
CCOC(=O)C(C(=O)OCC)C1N=C(N)N=C2Oc3ccccc3N21 (stereo not given),"inconclusive: 39.8 µM [inhibitor, single point]",–
O=C(Nc1ccc2oc(=O)ccc2c1)c1cc2ccccc2o1,inactive,–
C=CCn1c(CNc2ccc(C)cc2)nnc1SCC(=O)N/N=C/c1ccc(O)cc1O,"inconclusive: 39.8 µM [inhibitor, single point]",–
CNC(=O)NC(=O)CSc1nc2ccccc2n1CCOC,inactive,–
COc1cccc(CN(C)C(=O)c2cccc(OC3CCN(C4CCCC4)CC3)c2)c1,inactive,–
Cc1nc2c(C(=O)NCc3cccs3)cnn2c(C)c1Cc1ccccc1,"inconclusive: 35.5 µM [inhibitor, single point]",–
COCCSc1ccccc1C(=O)NCC1CCCO1 (stereo not given),inactive,–
O=[N+]([O-])c1ccc2sc(SCc3nc4ccccn4c3Br)nc2c1,"inconclusive: 29.9 µM [inhibitor, single point]",–
O=c1ccc(-c2nc3ccccc3n2Cc2ccccc2Cl)c[nH]1,"inconclusive: 35.5 µM [inhibitor, single point]",–

Compound,Potency,"activity, negative = inhibition"
CCOC(=O)c1cnc(-c2ccccc2)nc1-c1ccccc1,"inconclusive: 17.8 µM [inhibitor, partial curve, poor fit]",–
Cc1ccc(S(=O)(=O)N/N=C/c2c(F)cccc2Cl)cc1,active: 28.2 µM,–
O=C(c1ccc(Cl)cc1)c1cc([N+](=O)[O-])ccc1N1CCOCC1,"inconclusive: 39.8 µM [inhibitor, single point]",–
Cc1ccc(C(C2=C(O)CC(C)(C)CC2=O)C2C(=O)CC(C)(C)CC2=O)o1 (stereo not given),active: 14.1 µM,–
CC(=O)N(CC(C)(C)CC=C(C)C)c1ccccc1,"inconclusive: 28.2 µM [inhibitor, partial curve]",–
C=CCn1c(SCC(N)=O)nc(C)cc1=O,"inconclusive: 35.5 µM [inhibitor, single point]",–
O=C(Nc1sc2c(c1C(=O)O)CCCCC2)c1ccccc1,"inconclusive: 37.7 µM [inhibitor, partial curve, poor fit]",–
COc1cc(OC)cc(C(=O)N(CCCN2C(=O)c3cccc4cccc(c34)C2=O)c2cccc(OC)c2)c1,"inconclusive: 25.1 µM [inhibitor, partial curve]",–
Cc1c(NC2=C(Cl)C(=O)N(c3ccccc3Cl)C2=O)c(=O)n(-c2ccccc2)n1C,active: 35.5 µM,–
COCCN(C(=O)CC1C(=O)NCCN1Cc1ccc(-c2ccccc2)cc1)C(C)C (stereo not given),"inconclusive: 28.2 µM [inhibitor, single point]",–
OC1(c2ccccc2F)CCN(Cc2nnnn2Cc2ccc(F)cc2)CC1,inactive,–
CC(CCc1ccccc1)NC(=O)CN1CCSc2ccccc21 (stereo not given),active: 12.6 µM,–
O=C(CCSCCC(=O)NCc1ccccc1)NCc1ccccc1,inactive,–
CCOCc1cn(CC(=O)c2ccc([N+](=O)[O-])cc2)c(C)nc1=N,inactive,–
Brc1ccc(-c2ccc(/C=N/Nc3nc(N4CCOCC4)nc(N4CCOCC4)n3)o2)cc1,"inconclusive: 35.5 µM [inhibitor, single point]",–
COc1ccc(CCNC(=O)Nc2cccc([N+](=O)[O-])c2)cc1,"inconclusive: 39.8 µM [inhibitor, single point]",–
CC(C)C(NS(=O)(=O)c1cccs1)C(=O)NCc1ccccc1Cl (stereo not given),"inconclusive: 39.8 µM [inhibitor, single point]",–
CS(=O)(=O)N(CC(=O)N/N=C/c1ccccn1)c1ccc(Oc2ccccc2)cc1,inactive,–
CCOc1ccc(NC(=O)C2CC(C)=C(C)CC2C(=O)O)cc1 (stereo not given),inactive,–
COc1ccc(N/C=C2\C(=O)CCc3c2oc2cc(Cl)c(O)c(Cl)c32)cc1,inactive,–
Cc1ccc(S(=O)(=O)c2c(C)cc(C)nc2Oc2cccc(C)c2C)cc1,"inconclusive: 12.6 µM [inhibitor, partial curve]",–
O=C(OCC(=O)N1CCN(S(=O)(=O)c2ccc(Cl)cc2)CC1)c1ccc([N+](=O)[O-])o1,active: 25.1 µM,–
O=C(/C=C/c1ccco1)Oc1ccc(C(=S)N2CCOCC2)cc1,"inconclusive: 39.8 µM [inhibitor, single point]",–
Cc1noc(C)c1-c1cc(NCCN2CCOCC2)ncn1,active: 20 µM,–
CCN(Cc1ccccc1)C(=O)CSc1nncn1C,active: 31.6 µM,–

Compound,Potency,"activity, negative = inhibition"
CC(=O)NCCn1c(SCc2ccccc2F)nc2ccccc2c1=O,"inconclusive: 17.8 µM [inhibitor, partial curve]",–
CNC(=O)COC(=O)/C=C/c1c(C)nn(-c2ccccc2)c1C,inactive,–
O=C(c1ccccc1CCc1ccccc1)N1CCN(c2ccccn2)CC1,"inconclusive: 35.5 µM [inhibitor, partial curve]",–
COc1cc2c3c(c1)C(C)CC(C)(C)N3C(=O)C2=O (stereo not given),active: 0.141 µM,–
COc1ccc(C(C(O)C(=O)c2c[nH]c3ccccc23)N2CCN(c3ccccc3)CC2)cc1 (stereo not given),"inconclusive: 39.8 µM [inhibitor, single point]",–
O=C(CNC(=S)NC(=O)c1ccccc1)c1ccccc1,"inconclusive: 39.8 µM [inhibitor, single point]",–
Cc1nc(N2CCN(S(=O)(=O)c3ccccc3C#N)CC2)c2c(-c3cccs3)csc2n1,"inconclusive: 11.9 µM [inhibitor, partial curve, poor fit]",–
Cc1ccc(C2=NN(C(=O)CCCC(=O)O)C(c3ccco3)C2)cc1 (stereo not given),inactive,–
O=c1c(-c2ccc(O[C@@H]3O[C@H](CO)[C@@H](O)[C@H](O)[C@H]3O)cc2)coc2cc(O)cc(O)c12,"inconclusive: 44.7 µM [inhibitor, single point]",–
Cc1ccc(OCCCCn2ccnc2)c([N+](=O)[O-])c1,active: 1.58 µM,–
Cc1nc2scc(-c3ccc(C(C)C)cc3)c2c(=O)n1N,"inconclusive: 14.1 µM [inhibitor, partial curve]",–
NC(=O)c1cccc(N)c1,"inconclusive: 39.8 µM [inhibitor, single point] [middle of 4 runs]",–
COc1ccc(N2C(=O)c3ccccc3NC2c2ccc(OC)c(Cn3nnc4ccccc43)c2)cc1 (stereo not given),"inconclusive: 28.2 µM [inhibitor, single point]",–
CC(C)CCn1c(O)c(N=NC(=O)Cn2ccc(C(F)(F)F)n2)c2ccccc21,inactive,–
Cc1ccc2c(c1)c1c(n2CC(O)Cn2ccnc2C)C(=O)CCC1 (stereo not given),"inconclusive: 39.8 µM [inhibitor, single point]",–
O=C(CC1=NCCNC(c2ccccc2)C1)c1ccccc1O (stereo not given),active: 17.8 µM,–
CCOc1cc(/C=N/n2cnnc2)ccc1OS(=O)(=O)c1ccccc1,active: 12.6 µM,–
CC1CCCC(C)N1C(=O)CSc1nc2ncnc(N)c2[nH]1 (stereo not given),"inconclusive: 39.8 µM [inhibitor, single point]",–
Cc1ccc(S(=O)(=O)c2c(N)n(C)c3nc4ccccc4nc23)cc1,"inconclusive: 28.2 µM [inhibitor, partial curve]",–
Cc1ccc(C)c(NC(=S)NNC(=O)c2csc(C(C)C)c2)c1,active: 12.6 µM,–
Nn1c(-c2cccc(Br)c2)n[nH]c1=S,active: 22.4 µM,–
CN(C)C[C@H]1CCC2=C(C1=O)C(c1ccc(Cl)c(Cl)c1)C1=C(CC[C@H](CN(C)C)C1=O)O2,–,inactive: -9.87% [at 13.5 µM]
Cc1cc(=O)oc2cc3c(cc12)OCCN3,"inconclusive: 31.6 µM [inhibitor, partial curve]",–
c1ccc(COc2ccc(Nc3ncnc4nc[nH]c34)cc2)cc1,inactive,–
COc1cc(/C=C2\C(=O)N(c3ccccc3)N=C2C)ccc1Oc1ccc([N+](=O)[O-])cc1[N+](=O)[O-],"inconclusive: 14.1 µM [inhibitor, partial curve]",–
